In PMC9911399, “Two distinct binding modes provide the RNA-binding protein RbFox with extraordinary sequence specificity”:
Residue numbers refer to the chain shown, from its start. The list shows a part of the results.

T1: RBFOX1 RRM RbFoxmut (Fox-RRM*) (Homo sapiens, UniProt Q9NWB1 109-208, R118D;E147R;N151S;E152T)
T1 sequence: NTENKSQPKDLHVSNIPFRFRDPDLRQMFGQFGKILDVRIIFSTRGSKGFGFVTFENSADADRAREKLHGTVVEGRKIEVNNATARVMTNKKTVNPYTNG

B1: UACCGUU (DNA:RNA)
RNA: GGGAGACCGGAAUUCAGAUUGUCCUACCGUUUUAAAUCCCGUCGUAGCCACCA
DNA 1: CAATCTGAATTCCGGTCTCCC
DNA 2: TGGTGGCTACGACGGGATT
B2: GGUGUAG (DNA:RNA)
RNA: GGGAGACCGGAAUUCAGAUUGUCCGGUGUAGUUAAAUCCCGUCGUAGCCACCA
DNA 1: CAATCTGAATTCCGGTCTCCC
DNA 2: TGGTGGCTACGACGGGATT
B3: AAGAUAG (DNA:RNA)
RNA: B2 RNA with G25A, G26A, U27G, G28A
DNA 1: CAATCTGAATTCCGGTCTCCC
DNA 2: TGGTGGCTACGACGGGATT
B4: CGCUAGG (DNA:RNA)
RNA: B2 RNA with G25C, U27C, G28U, U29A, A30G
DNA 1: CAATCTGAATTCCGGTCTCCC
DNA 2: TGGTGGCTACGACGGGATT
B5: GGGAAUU (DNA:RNA)
RNA: B2 RNA with U27G, G28A, U29A, A30U, G31U
DNA 1: CAATCTGAATTCCGGTCTCCC
DNA 2: TGGTGGCTACGACGGGATT
B6: UUUUAGA (DNA:RNA)
RNA: B2 RNA with G25U, G26U, G28U, U29A, A30G, G31A
DNA 1: CAATCTGAATTCCGGTCTCCC
DNA 2: TGGTGGCTACGACGGGATT
B7: GAUCCUG (DNA:RNA)
RNA: B2 RNA with G26A, G28C, U29C, A30U
DNA 1: CAATCTGAATTCCGGTCTCCC
DNA 2: TGGTGGCTACGACGGGATT
B8: UUGCUGG (DNA:RNA)
RNA: B2 RNA with G25U, G26U, U27G, G28C, A30G
DNA 1: CAATCTGAATTCCGGTCTCCC
DNA 2: TGGTGGCTACGACGGGATT
B9: AGUGCAA (DNA:RNA)
RNA: B2 RNA with G25A, U29C, G31A
DNA 1: CAATCTGAATTCCGGTCTCCC
DNA 2: TGGTGGCTACGACGGGATT
B10: AGGACAG (DNA:RNA)
RNA: B2 RNA with G25A, U27G, G28A, U29C
DNA 1: CAATCTGAATTCCGGTCTCCC
DNA 2: TGGTGGCTACGACGGGATT
B11: AUGGCAG (DNA:RNA)
RNA: B2 RNA with G25A, G26U, U27G, U29C
DNA 1: CAATCTGAATTCCGGTCTCCC
DNA 2: TGGTGGCTACGACGGGATT
B12: CAAAAUC (DNA:RNA)
RNA: B1 RNA with U25C, C27A, C28A, G29A, U31C
DNA 1: CAATCTGAATTCCGGTCTCCC
DNA 2: TGGTGGCTACGACGGGATT
B13: GAGCUAU (DNA:RNA)
RNA: B2 RNA with G26A, U27G, G28C, G31U
DNA 1: CAATCTGAATTCCGGTCTCCC
DNA 2: TGGTGGCTACGACGGGATT
B14: GCACCGC (DNA:RNA)
RNA: B2 RNA with G26C, U27A, G28C, U29C, A30G, G31C
DNA 1: CAATCTGAATTCCGGTCTCCC
DNA 2: TGGTGGCTACGACGGGATT
B15: CCGCGGG (DNA:RNA)
RNA: B1 RNA with U25C, A26C, C27G, U30G, U31G
DNA 1: CAATCTGAATTCCGGTCTCCC
DNA 2: TGGTGGCTACGACGGGATT
B16: UGAGGGA (DNA:RNA)
RNA: B2 RNA with G25U, U27A, U29G, A30G, G31A
DNA 1: CAATCTGAATTCCGGTCTCCC
DNA 2: TGGTGGCTACGACGGGATT
B17: CUCUCAG (DNA:RNA)
RNA: B2 RNA with G25C, G26U, U27C, G28U, U29C
DNA 1: CAATCTGAATTCCGGTCTCCC
DNA 2: TGGTGGCTACGACGGGATT
B18: UUGUAUC (DNA:RNA)
RNA: B1 RNA with A26U, C27G, C28U, G29A, U31C
DNA 1: CAATCTGAATTCCGGTCTCCC
DNA 2: TGGTGGCTACGACGGGATT
B19: GUAACGC (DNA:RNA)
RNA: B2 RNA with G26U, U27A, G28A, U29C, A30G, G31C
DNA 1: CAATCTGAATTCCGGTCTCCC
DNA 2: TGGTGGCTACGACGGGATT
B20: AUGGAUC (DNA:RNA)
RNA: B2 RNA with G25A, G26U, U27G, U29A, A30U, G31C
DNA 1: CAATCTGAATTCCGGTCTCCC
DNA 2: TGGTGGCTACGACGGGATT
B21: AGGACAU (DNA:RNA)
RNA: B2 RNA with G25A, U27G, G28A, U29C, G31U
DNA 1: CAATCTGAATTCCGGTCTCCC
DNA 2: TGGTGGCTACGACGGGATT
B22: AUUCUUC (DNA:RNA)
RNA: B2 RNA with G25A, G26U, G28C, A30U, G31C
DNA 1: CAATCTGAATTCCGGTCTCCC
DNA 2: TGGTGGCTACGACGGGATT
B23: CUGGGAA (DNA:RNA)
RNA: B2 RNA with G25C, G26U, U27G, U29G, G31A
DNA 1: CAATCTGAATTCCGGTCTCCC
DNA 2: TGGTGGCTACGACGGGATT
B24: AUAUUCU (DNA:RNA)
RNA: B2 RNA with G25A, G26U, U27A, G28U, A30C, G31U
DNA 1: CAATCTGAATTCCGGTCTCCC
DNA 2: TGGTGGCTACGACGGGATT
B25: AACUGUG (DNA:RNA)
RNA: B1 RNA with U25A, C28U, U31G
DNA 1: CAATCTGAATTCCGGTCTCCC
DNA 2: TGGTGGCTACGACGGGATT
B26: CCUGUUA (DNA:RNA)
RNA: B2 RNA with G25C, G26C, A30U, G31A
DNA 1: CAATCTGAATTCCGGTCTCCC
DNA 2: TGGTGGCTACGACGGGATT
B27: CGUACGG (DNA:RNA)
RNA: B2 RNA with G25C, G28A, U29C, A30G
DNA 1: CAATCTGAATTCCGGTCTCCC
DNA 2: TGGTGGCTACGACGGGATT
B28: CGACACC (DNA:RNA)
RNA: B2 RNA with G25C, U27A, G28C, U29A, A30C, G31C
DNA 1: CAATCTGAATTCCGGTCTCCC
DNA 2: TGGTGGCTACGACGGGATT
B29: CAGGGCA (DNA:RNA)
RNA: B1 RNA with U25C, C27G, C28G, U30C, U31A
DNA 1: CAATCTGAATTCCGGTCTCCC
DNA 2: TGGTGGCTACGACGGGATT
B30: GCCGACG (DNA:RNA)
RNA: B2 RNA with G26C, U27C, U29A, A30C
DNA 1: CAATCTGAATTCCGGTCTCCC
DNA 2: TGGTGGCTACGACGGGATT
B31: GGAGACA (DNA:RNA)
RNA: B2 RNA with U27A, U29A, A30C, G31A
DNA 1: CAATCTGAATTCCGGTCTCCC
DNA 2: TGGTGGCTACGACGGGATT

Each binder was assayed against T1, RBFOX1 RRM RbFoxmut (Fox-RRM*) (assay: EMSA; HiTS-Eq, 1 nM pool, 10 min; buffer printed only for the single-RNA assays: 10 mM Tris pH 7.5, 150 mM NaCl, 3.4 mM EDTA, 0.001% NP-40, 30 C). Conditions: tags: His6 N-terminal (pET28a); label: 5' 32P.
Summary of the method: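 These values rest on relative association constants, computed from read-count changes of each RNA species versus the control reaction and normalised to the cognate motif. Reads came from free RNA recovered by 8% native PAGE after purified RbFox RRM (wild type or mutant) at increasing concentrations was equilibrated for 10 min in 50 µL with 1 nM of a 5′-radiolabelled pool with 7 randomized nucleotides and DNA-annealed flanks.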
For B1, the binding signal was 0.114 KA relative to UGCAUGU. With B2 the binding signal was 0.11 KA relative to UGCAUGU. For B3, the binding signal was 0.0873 KA relative to UGCAUGU. For B4, the binding signal was 0.103 KA relative to UGCAUGU. B5 was tested, and the binding signal was 0.0897 KA relative to UGCAUGU. For B6, the binding signal was 0.1 KA relative to UGCAUGU. For B7, the binding signal was 0.0782 KA relative to UGCAUGU. B8 was tested, and the binding signal was 0.128 KA relative to UGCAUGU. With B9 the binding signal was 0.0655 KA relative to UGCAUGU. For B10, the binding signal was 0.0616 KA relative to UGCAUGU. For B11, the binding signal was 0.119 KA relative to UGCAUGU. With B12 the binding signal was 0.0517 KA relative to UGCAUGU. In the case of B13, the binding signal is reported as 0.0915 KA relative to UGCAUGU. In the case of B14, the binding signal is reported as 0.139 KA relative to UGCAUGU. In the case of B15, the binding signal is reported as 0.07 KA relative to UGCAUGU. With B16 the binding signal was 0.0508 KA relative to UGCAUGU. With B17 the binding signal was 0.107 KA relative to UGCAUGU. B18 was tested, and the binding signal was 0.523 KA relative to UGCAUGU. With B19 the binding signal was 0.0798 KA relative to UGCAUGU. For B20, the binding signal was 0.298 KA relative to UGCAUGU. With B21 the binding signal was 0.0571 KA relative to UGCAUGU. B22 was tested, and the binding signal was 0.0673 KA relative to UGCAUGU. In the case of B23, the binding signal is reported as 0.12 KA relative to UGCAUGU. In the case of B24, the binding signal is reported as 0.0971 KA relative to UGCAUGU. In the case of B25, the binding signal is reported as 0.113 KA relative to UGCAUGU. With B26 the binding signal was 0.143 KA relative to UGCAUGU. In the case of B27, the binding signal is reported as 0.116 KA relative to UGCAUGU. For B28, the binding signal was 0.0301 KA relative to UGCAUGU. For B29, the binding signal was 0.0722 KA relative to UGCAUGU. For B30, the binding signal was 0.079 KA relative to UGCAUGU. For B31, the binding signal was 0.089 KA relative to UGCAUGU.
